# Screen size: about 310,000 compounds; about 14,000 (4.5%) showed an effect of 50% or more. The effect is printed as a negative number. The list shows a part of the results.
# Target: human ether-à-go-go-related gene (hERG) potassium channel (human, UniProt Q12809)
# Assay: primary screen, population patch clamp on CHO cells stably expressing hERG
# 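Note: peak tail current of the secondary pulse compared with the same well before compound.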
# Chain of human ether-à-go-go-related gene (hERG) potassium channel (Q12809 whole entry, looked up): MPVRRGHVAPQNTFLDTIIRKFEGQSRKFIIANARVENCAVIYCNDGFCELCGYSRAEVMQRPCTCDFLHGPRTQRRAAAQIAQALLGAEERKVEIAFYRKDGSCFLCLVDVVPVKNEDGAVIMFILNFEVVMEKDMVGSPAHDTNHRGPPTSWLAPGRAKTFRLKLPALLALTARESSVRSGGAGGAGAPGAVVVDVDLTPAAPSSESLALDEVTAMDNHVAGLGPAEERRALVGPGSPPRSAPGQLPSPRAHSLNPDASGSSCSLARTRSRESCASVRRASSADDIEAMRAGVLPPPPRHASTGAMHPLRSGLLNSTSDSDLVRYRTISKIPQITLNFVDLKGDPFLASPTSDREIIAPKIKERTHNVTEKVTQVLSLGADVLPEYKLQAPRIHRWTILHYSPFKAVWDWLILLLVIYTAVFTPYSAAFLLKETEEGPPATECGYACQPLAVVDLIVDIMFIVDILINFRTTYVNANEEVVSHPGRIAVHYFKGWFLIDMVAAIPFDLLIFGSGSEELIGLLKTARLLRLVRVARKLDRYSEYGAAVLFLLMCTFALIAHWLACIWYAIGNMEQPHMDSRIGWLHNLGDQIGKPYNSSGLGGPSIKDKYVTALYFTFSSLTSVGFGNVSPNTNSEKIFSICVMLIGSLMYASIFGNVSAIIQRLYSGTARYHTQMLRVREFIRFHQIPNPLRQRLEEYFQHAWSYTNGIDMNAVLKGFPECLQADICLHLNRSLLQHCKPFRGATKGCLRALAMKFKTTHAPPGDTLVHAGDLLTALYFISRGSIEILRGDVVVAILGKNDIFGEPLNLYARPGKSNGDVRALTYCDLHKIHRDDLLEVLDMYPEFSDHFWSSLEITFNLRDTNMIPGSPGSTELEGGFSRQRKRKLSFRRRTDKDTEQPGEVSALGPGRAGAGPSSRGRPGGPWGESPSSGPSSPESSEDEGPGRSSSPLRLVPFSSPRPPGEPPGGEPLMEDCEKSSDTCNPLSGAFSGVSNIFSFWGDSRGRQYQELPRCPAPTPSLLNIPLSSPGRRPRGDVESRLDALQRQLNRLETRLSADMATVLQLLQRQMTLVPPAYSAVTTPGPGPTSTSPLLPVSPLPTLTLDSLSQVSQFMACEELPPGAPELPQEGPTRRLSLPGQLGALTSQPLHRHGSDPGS
row,SMILES,"hERG current change (%, negative = inhibition) at 10uM [%]"
1,COc1ccc(C(=O)Nc2ccccc2NC(=O)c2ccco2)c(OC)c1,-21.9
2,Cc1ccnc(NC(=O)c2ccc(COc3c(F)c(F)cc(F)c3F)o2)c1,13.3
3,COc1cccc(C2/C(=C(/O)c3ccc4c(c3)OCO4)C(=O)C(=O)N2CCN2CCOCC2)c1 (centres unmarked),20.1
4,COc1ccc(C(C(=O)NC2CCCC2)N(CCN2CCOCC2)C(=O)c2ccc(OC)c(OC)c2)cc1 (centres unmarked),-0.415
5,CCOCCCNc1nc(C(F)(F)F)nc2c1nnn2Cc1ccccc1Cl,9.1
6,COc1ccc(S(=O)(=O)NCC(=O)N(Cc2ccco2)C(C(=O)NC(C)(C)C)C(C)C)cc1 (centres unmarked),7.08
7,O=C(CSc1nnnn1-c1cccnc1)Nc1cccc(Cl)c1,3.53
8,CCN(Cc1cnn(C)c1)Cc1nc(Cc2ccccc2Cl)no1,-6.26
9,CC(C)(C)c1ccc(S(=O)(=O)NCc2ccc(C(=O)NCC3CCCO3)cc2)cc1 (centres unmarked),13.8
10,CCn1c(SCC(=O)Nc2ccccc2F)nnc1-c1ccoc1C,-30.1
11,CCOc1ccc(CN(C)C(=O)CN2C(=O)NC(c3ccccc3)(c3ccccc3)C2=O)cc1,3.31
12,O=C(c1csc2c1CCCC2)N1CCCCC1,18.5
13,N#Cc1ccc(-c2ccccc2)nc1SCCN1CCOCC1,-23.7
14,Cc1ccc(NC(=O)Cc2ccc(-n3cccc3)cc2)c(C)c1,0.774
15,O=C(NCc1cccnc1)c1ccc2c(=O)n(CCCN3CCCC3=O)c(=S)[nH]c2c1,-1.47
16,Cc1ccc(S(=O)(=O)N2C(=O)CCC2C(=O)Nc2ccc3c(c2)OCCO3)cc1 (centres unmarked),10.6
17,COc1cccc(CNCCc2c[nH]c3ccccc23)c1,-14.2
18,COc1ccc2nc(C)cc(NCc3ccc(F)cc3)c2c1,-61.6
19,COc1cc(C#N)ccc1OCC(=O)NCc1cccs1,-1.28

row,SMILES,"hERG current change (%, negative = inhibition) at 10uM [%]"
1,CC(C)(CCO)Nc1ncnc2onc(-c3ccc(F)cc3)c12,7.29
2,CCOc1ccccc1OCCCC(=O)NC1CCCc2ccccc21 (centres unmarked),-1.35
3,O=C(CN1C(=O)NC2(CCCCCC2)C1=O)c1cccs1,-5.01
4,Cc1nn(C)cc1S(=O)(=O)N1CCN(Cc2ccccc2Cl)CC1,3.33
5,O=C1c2ccccc2S(=O)(=O)c2cc(C(=O)N3CCN(c4c(Cl)cncc4Cl)CC3)ccc21,-38.8
6,CC(C)(C)c1ccc(C(=O)Nc2ncn[nH]2)cc1,12.2
7,O=C(O)c1ccc2c(c1)ncn2C1CCCCC1,5.84
8,C/C(=N\NC1=NCCN1)c1ccc(N)c([N+](=O)[O-])c1,-15.2
9,CCOC(=O)CNc1ncnc2nc[nH]c12,9.53
10,O=C(NCCCNCc1ccccc1)c1ccccn1.O=C(O)/C=C/C(=O)O,-7.1
11,COc1ccccc1CN1CC(C(=O)N(C)Cc2[nH]c3ccccc3c2C)CCC1=O (centres unmarked),-22.8
12,CCC1=Nc2cc(C(=O)O)ccc2Sc2ccc(Cl)cc21,15
13,CCN(CC)c1nc(-c2ccc(C(=O)NN)cc2)nc(-c2ccc(C(=O)NN)cc2)n1,17.3
14,O=C(O)Cc1ccc(NS(=O)(=O)c2c(Cl)cccc2Cl)cc1,6.37
15,Cc1cccc(N2C(S)=C(C#N)C(=O)NC2c2cccs2)c1 (centres unmarked),13
16,CC(=O)NS(=O)(=O)c1ccc(NC(=O)C2c3ccccc3Oc3ccccc32)cc1,15.6
17,CC(=O)c1ccc(NS(=O)(=O)c2ccc3c(c2)N(C(C)=O)CCO3)cc1,8.99
18,CCOC(=O)C1(Cc2cccc(Cl)c2)CCCN(C(=O)c2cc(C)on2)C1 (centres unmarked),-9.8
19,CN(C(=O)c1cccc(N2C(=O)C3C4C=CC(C4)C3C2=O)c1)C1CCCCC1 (centres unmarked),0.921

row,SMILES,"hERG current change (%, negative = inhibition) at 10uM [%]"
1,O=C(CCNC(=O)c1ccc([N+](=O)[O-])cc1)Nc1nccs1,1.93
2,CCCCOc1ccc(C(=O)NCC(=O)N(C)Cc2nc3ccccc3c(=O)[nH]2)cc1,-47.7
3,O=P1(Oc2ccccc2)OCCCS1 (centres unmarked),18.6
4,CCOC(=O)NC1(C(F)(F)F)C(=O)N(Cc2ccccc2)C2=C1C(=O)CC(C)(C)C2 (centres unmarked),20.9
5,O=C(O)c1ccccc1C(=O)NCCCn1ccnc1,18.4
6,O=S(=O)(Cc1ccccc1)Nc1ccc(F)cc1,7.05
7,CCOc1ccc(NS(=O)(=O)c2cc(C(=O)N3CC(C)OC(C)C3)ccc2C)cc1 (centres unmarked),-0.0292
8,COc1cccc(NC(=O)CN2C(=O)c3cccnc3Oc3ccc(Cl)cc32)c1,-7.75
9,Nc1ccccc1C(=O)N/N=C1\C2CN3CCN(C2)CC1(c1ccccc1)C3,7.61
10,CC1(C)CC(=O)c2c(oc3ccc(NS(=O)(=O)c4cccc5cccnc45)cc23)C1,-5.52
11,COCCCNC(=S)N/N=C/c1ccc(OC)c(Br)c1,18.9
12,Cc1ccc(S(=O)(=O)n2nc(OC(=O)c3c(-c4ccccc4Cl)noc3C)cc2N)cc1,16.3
13,Cc1cccc(NC(=O)CSc2nccn2Cc2ccco2)c1C,-0.865
14,O=C(NCc1ccc2c(c1)OCO2)C1CCN(S(=O)(=O)N2CCOCC2)CC1,-5.12
15,COc1ccc(C)cc1NC(=O)C1C2C=CC(C2)C1C(=O)O (centres unmarked),5.81
16,CC1Cc2ccccc2N1C(=O)c1cnc2ccccn2c1=O (centres unmarked),-31.1
17,O=C(O)c1ccc(N=Nc2c(O)ccc3ncccc23)cc1,13.2
18,CCCN(CC1CC1)c1nc(N)c2c(N)nc(OC)cc2c1C#N,-10.4

# Reference: paper PMC4336329 (PLoS ONE, 2015)
